Results published in PubChem BioAssay AID434955 (Southern Research Specialized Biocontainment Screening …, 2010).
The other results are listed elsewhere or left out. Shown are side measurements of this screen, not its main read-out; they come without a call. The list favours compounds with an active or inconclusive main result.

Experiment: beta-lactam sensitization of Mtb H37Rv, H37Rv (AID 434955);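 also: growth measured after seven days incubation then overnight dye step; 0% = bacteria only wells and 100% = bacteria with antibiotic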
Details: M. tuberculosis H37Rv growth with meropenem, percent inhibition; measured here: primary screen without meropenem; at 25 µM

SMILES | inhibition
Cc1ccc(OC(=O)c2cccc(S(=O)(=O)N3CCCC3)c2)c(-n2nc3ccccc3n2)c1 | -2.84%
O=C(Nc1ccccc1)c1ccccc1Oc1ccc(C(F)(F)F)cc1[N+](=O)[O-] | 11.2%
CN(C)c1ccc(/C=C/c2cc[n+]([O-])cc2)cc1 | 33.5%
COC(=O)c1c(C)n(-c2ccccc2)c2ccc(O)cc12 | 49%
COC(=O)c1cccc(NC(=O)CC2C(=O)NCCN2C(=O)Nc2ccccc2)c1 (stereo not drawn) | 5.64%
CN(C)S(=O)(=O)N1CCC(n2nccc2NC(=O)CCc2ccccc2)CC1 | -4.65%
COc1ccc(/C=C/CN2CCC(Oc3ccc(C(=O)N4CCCCC4)cc3)CC2)cc1 | 76.1%
O=C1N=C(N2CCCC2)S/C1=C\c1cccc(Br)c1 | 32.9%
COc1cc([N+](=O)[O-])c(C(=O)N2CCOCC2)c([N+](=O)[O-])c1 | -6.55%
Cc1ccc2[nH]c(O)c(N=Nc3nc4ccccc4s3)c2c1 | 11.1%
CCN(CC)c1ccc(C=N/C(C#N)=C(\N)C#N)cc1 | 9.73%
COCCCn1c(SCC(=O)NC2CCCC2)nnc1-c1ccco1 | 0.98%
CC(C)CC(NC(=O)C1CCC(C)CC1)C(=O)N1CCN(c2ccccn2)CC1 (stereo not drawn) | -3.09%
COc1ccc2c(c1)CCc1c(C(=O)Nc3ccn(Cc4ccc(C)cc4)n3)noc1-2 | 6.29%
O=C(Cn1c(=O)sc2ccccc21)Nc1ccc(S(=O)(=O)N2CCCC2)cc1 | 3.41%
COC(=O)c1ccc(C)c(NC(=O)c2ccc(Cn3cc([N+](=O)[O-])cn3)o2)c1 | 0.09%
Cc1ccc(/C=C(\NC(=O)c2ccccc2)C(=O)NCCN2CCOCC2)o1 | -5.9%
CCC(C)N1CCC(Oc2ccc(C(=O)NCc3ccccn3)cc2)CC1 (stereo not drawn) | -0.98%
Cc1ccc2nc(NCCCO)[nH]c2c1 | 1.38%
CN(CC(=O)NCC1CCCO1)S(=O)(=O)c1ccc(Br)cc1 (stereo not drawn) | -20.9%
Cc1ccc(C)c(SCC(=O)OCC(=O)N2CC(C)OC(C)C2)c1 (stereo not drawn) | -0.59%
Cc1c(NC(=S)NC(=O)CSc2ccc(Cl)cc2)cccc1C(=O)O | -5.52%
Cc1ccc(OCc2cc(C(=O)N(C)CC3CCOCC3)no2)cc1C | 3.92%
O=C(C1Cc2ccccc2CN1S(=O)(=O)c1ccc(F)cc1)N1CCCCCC1 (stereo not drawn) | 1.25%
COc1cccc(Nc2ccc(Nc3cccc(OC)c3)nn2)c1 | 15.7%
CC(C)Oc1ccc(CNC(=O)CCC(=O)N2CC(C)Sc3ccccc32)cc1 (stereo not drawn) | -4.94%

SMILES | inhibition
COc1cc(/C=N/NC(=O)C(=O)N2CCCCCC2)ccc1O | -5.14%
CCn1c(COc2ccccc2C)nnc1SCC(=O)N1CCC(C)CC1 | -4.67%
O=C(NC1(C(=O)NC2CCCCC2)CCCCC1)c1ccccn1 | 8.84%
Cn1c(O)c(/C=C2/C=CC=N2)c(=O)[nH]c1=O | 17.3%
N#Cc1c(N)nc2c(c1-c1ccncc1)CCCCC2 | 11%
O=C(NCc1ccc2c(c1)OCO2)c1ccc(-n2cnnn2)cc1 | 1.25%
COc1ccccc1OCC(=O)NCC1CCCN(Cc2cnn(C(C)C)c2)C1 (stereo not drawn) | 9.02%
C/C=C/Cn1c(Br)nc2c1c(=O)[nH]c(=O)n2C | -8.89%
CCOC(=O)c1c(NC(=O)CSc2ncn[nH]2)sc(C(=O)NC)c1C | 3.85%
COCCN1C(=O)C(=O)/C(=C(/O)c2ccc(S(=O)(=O)N3CCCCC3)cc2)C1c1ccc(OC)c(OC)c1 (stereo not drawn) | -6.65%
O=C(c1cc2ccccc2o1)N1CCN(S(=O)(=O)c2ccc(Cl)s2)CC1 | 96.3%
C/C(CC(=O)Nc1c(C)cc(C)cc1C)=N\NC(=O)c1cnccn1 | 36%
O=S(=O)(Oc1ccccc1C(=S)N1CCOCC1)c1ccc(Cl)cc1 | 1.73%
Cc1cc(NC(=O)C2C3C=CC(C3)C2C(=O)O)no1 (stereo not drawn) | 1.96%
O=C(Nc1cccc(S(=O)(=O)NCc2ccco2)c1)c1cc(-c2ccc(F)cc2)nc2ccccc12 | 27.7%
CCc1nnc(NC(=O)CSc2nnc(-c3ccco3)n2C)s1 | -9.08%
COC1CCCN(Cc2c(C(=O)N3CCN(C4CCCCC4)CC3)nc3ccccn23)C1 (stereo not drawn) | 5.2%
Cc1cc(C(=O)NC2CC(C)(C)Cc3c2cnn3-c2cccc(F)c2)nn1C (stereo not drawn) | -2.55%
COc1ccc(C(=O)Nc2nnc(C3=COCCO3)o2)cc1 | 90.6%
O=C(O)c1ccc(Cl)c(NC(=O)C2CCCN2S(=O)(=O)c2cccc3nsnc23)c1 (stereo not drawn) | -2.45%
Cn1cc([N+](=O)[O-])c(C(=O)NC2CCCCCCC2)n1 | 8.92%
O=C(C1CCC(=O)N(C2CC2)C1)N1CCC(Oc2ccccc2F)CC1 (stereo not drawn) | 10.2%
CC(C)C(=O)Nc1ccc(NC(=S)NC(=O)c2ccccc2F)cc1 | -4.04%
O=C(Nc1ccccc1)Nc1csc2ccccc12 | 2.4%
COc1ccc(-c2nnc(NC(=O)c3ccc(S(=O)(=O)N(C)CC4CCCO4)cc3)o2)c(OC)c1 (stereo not drawn) | 42.3%
COC(=O)c1cccc(NC(=O)CSc2nnc(C)n2Cc2ccccc2)c1 | 0.33%

SMILES | inhibition
CCN1CCN(c2nc(-c3ccccc3Cl)nc3ccccc23)CC1 | -8.32%
O=C(c1ccc2[nH]c(=O)c(=O)[nH]c2c1)N1CCc2ccccc21 | 5.4%
Nc1nc(SCc2nc(-c3ccccc3)no2)[nH]c(=O)c1-c1ccccc1 | 7.23%
O=S(=O)(c1ccc(Br)cc1)c1nc(-c2ccccc2)oc1NCCN1CCOCC1 | 6.21%
COc1ccc(N2C(=O)NC(NS(=O)(=O)c3ccccc3)(C(F)(F)F)C2=O)cc1 (stereo not drawn) | -5.61%
C#C[C@]1(O)CCC2C3CCC4=C/C(=N/OCC(=O)NC(C)C(=O)NC(CCSC)C(=O)O)CC[C@]4(C)C3CC[C@@]21C (stereo partly drawn) | 5.59%
CC1CC2(CCCCC2)Nc2ccc3ccccc3c21 (stereo not drawn) | 23.8%
O=C(Nc1nc2cc3c(cc2s1)OCCO3)c1ccc([N+](=O)[O-])o1 | 99.5%
CC1(C)Cc2c(cnn2-c2ccccc2)C(NC(=O)CCc2ccc(=O)[nH]n2)C1 (stereo not drawn) | -1.54%
CCOC(=O)CSc1nc2ccc(Nc3nc(N4CCOCC4)nc(N4CCOCC4)n3)cc2s1 | 99.1%
O=C(NN=C1CCCC1)c1cccs1 | 13.3%
Cc1coc2c(C)c3oc(=O)c(CCC(=O)N4CCC(C(=O)NCCCC(=O)O)(c5ccccc5)CC4)c(C)c3cc12 | 5.29%
Cc1cc(/C=N/NC(=O)CC#N)c(C)n1-c1ccc([N+](=O)[O-])cc1 | 31.2%
Oc1c(C(c2cccs2)N2CCN(c3ccccc3)CC2)ccc2cccnc12 (stereo not drawn) | 30.5%
Cn1nnnc1Sc1ncnc2scc(-c3ccc([N+](=O)[O-])cc3)c12 | 96.2%
CCOc1cc(/C=C2\C(=N)N3N=CSC3=NC2=O)ccc1OS(=O)(=O)c1ccccc1 | -22.1%
COc1ccc2ccccc2c1/C=N/NC(=O)c1cccc(C)c1 | 7.93%
Cc1cc(C)nc(/N=C(/NC(=O)Nc2ccc(Cl)c(Cl)c2)Nc2cccc(Cl)c2)n1 | -5.57%
C/C(CC(=O)NCc1ccco1)=N\NC(=O)CC#N | 34.6%
Cc1ccc(C)c(OCC(=O)Nc2ccccc2N2CCCC2)c1 | 5.04%
Cc1ccccc1OCc1nc2ccccc2c(=O)n1/N=C/c1cn[nH]c1-c1ccc(Br)cc1 | 8.94%
COc1ccc(C(O)(C2CCCCC2)C(CN2CCCC2)c2ccccc2)cc1 (stereo not drawn) | 5.23%
COc1cccc(CN2CCNC(=O)C2CC(=O)NCCCC2CCCC2)c1OC (stereo not drawn) | 0.65%
CNC(=O)COC(=O)c1[nH]c(C)c(C(C)=O)c1C | 5.45%
Cc1nn(-c2ccccc2)c(Cl)c1/C=N/NC(=O)c1ccnn1C | -0.48%
Cc1ccc(C2=N/C(=C\c3cccc(F)c3)C(=O)O2)cc1 | 49.4%

SMILES | inhibition
CC(=O)N1c2ccc(S(=O)(=O)N(C)C3CCCCC3)cc2CC1C (stereo not drawn) | -9.51%
Cc1ccc(S(=O)(=O)N[C@@H](Cc2ccccc2)C(=O)N2CCC(C(=O)N[C@@H](CC(C)C)C(=O)O)CC2)cc1 | 7.98%
COc1ccc(-c2sc3cc(OC)c(OC)cc3c2C#CCCO)cc1 | 71.3%
CSc1ncc(CN2CCC(C(=O)Nc3cccc(-c4cscn4)c3)CC2)cn1 | 4.95%
Cc1nn(-c2ccc(N3CCCCC3)nn2)c(C)c1CCC(=O)Nc1ccc(F)cc1 | 2.44%
CCOC(=O)c1nn(-c2ccc(C)cc2)c(C)c1C(C)=O | 2.39%
Cc1ccc(C(=O)N/C(=C\c2cccs2)C(=O)N2CCN(C)CC2)cc1C | 0.74%
COc1cc(NC(=O)c2ccccc2F)c(OC)cc1NC(=O)CN1CCOCC1 | 16%
C[C@]12CCC(=O)C=C1CC[C@@H]1C2[C@H](O)C[C@]2(C)C(=O)CCC12 (stereo partly drawn) | 2.16%
O=C(CSc1nnc(NC(=O)c2ccccc2[N+](=O)[O-])s1)NCC1CCCO1 (stereo not drawn) | 4.2%
COc1ccc(S(=O)(=O)N(C(=O)c2ccncc2)c2ccc3oc4c(c3c2)CCCC4)cc1 | -15%
O=C(NCC1CCCO1)c1cccc(NC(=O)c2ccc(Br)cc2)c1 (stereo not drawn) | 2.75%
CCC/C(O)=C1\C(=O)CC(C)(C)CC1=NCc1ccccc1 | 30.1%
COc1ccccc1-c1cc(C(F)(F)F)nc(S(=O)(=O)CCCC(=O)O)n1 | 11.4%
CC(=O)N1CCCN(C(=O)c2cc(COc3c(F)cccc3F)on2)CC1 | 3.59%
O=C(CSc1ccc(Cl)cc1)NC1=NN(c2ccccc2)C(=O)C1 | -2.07%
O=C(c1cc(-c2ccc(Cl)cc2)n[nH]1)N1CCN(C(=O)c2ccco2)CC1 | 2.57%
CCOC(=O)c1[nH]c(C)c(C(=O)Nc2ccccc2C)c1C | -5.73%
O=C(CN1CCCN(Cc2ccc(F)cc2)S1(=O)=O)NC1CCCC1 | -3.72%
CC1(C)CC(=O)C(C=NCCN2CCN(CCc3ccccc3)CC2)=C(O)C1 | -1.89%
CCc1ccc(C(=O)NC(=S)Nc2ccccc2N2CCOCC2)cc1 | 90.1%
Cc1ccccc1OCC(=O)Nc1ccccc1N1CCCCC1 | 6.87%
Cc1ccc(-c2nc(NC(=O)c3nn(C)cc3[N+](=O)[O-])sc2C)cc1 | 0.94%
CCc1c(C(=O)Nc2cc(C)cc(C)c2)[nH]c(C)c1C(C)=O | -5.19%
CN(C)S(=O)(=O)N(CC(=O)Nc1ccccc1F)c1ccccc1 | 2.26%
